# Assay results reported in PubChem BioAssay AID1345083 (National Center for Advancing Translational Sciences (NCATS), 2018).
# In all, about 94,000 compounds went through this assay and about 6,200 (6.6%) were called active. The inconclusive results got no clear call from the source; some entries with a clear call stand among them for comparison. Calls come from the whole dose curve; as a rule, active = well fitted inhibition curve with a large enough effect; inconclusive = small, poorly fitted or top-dose-only effect; inactive = flat fitted curve, though single readings scatter. A potency beside an inconclusive call is a rough fit, not a confirmed value.
# Test: Cytotoxic Profiling in HEK 293 Cell Line of Diverse Libraries Using Quantitative High-Throughput Screening; note: nearly all actives have a fitted effect of over 60% in size
# Conditions: HEK 293 viability, ATP luminescence (CellTiter-Glo), 48-72 h; series mostly up to 115 µM
# Method in brief: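 Cytotoxicity was scored by loss of ATP-coupled luminescence (CellTiter-Glo) in HEK 293 cells. Compound treatment ran 48 or 72 hr at 37 degree Celsius, 5% CO2, 95% humidity.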
# Potency is the fitted concentration of half-maximal effect; tags give direction and shape of the fitted curve.
row,Compound,Potency
1,CC(C)NC(=O)C1COC2(CCN(C(=O)c3ccccc3Cl)CC2)N1C(=O)c1ccccc1 (stereo not given),"inconclusive: 79.4 µM [inhibitor, single point]"
2,O=C(N1CCC(Cc2noc(-c3ccc(F)cc3)n2)C1)C1(c2ccccc2)CC1 (stereo not given),active: 39.8 µM
3,O=C(C1CCCO1)N1CCc2c(n(Cc3ccccc3)n(-c3ccccc3)c2=O)C1 (stereo not given),inactive
4,CC(Cc1cnccn1)NC(=O)c1ccc2nc(-c3ccc(F)cc3)cn2c1 (stereo not given),"inconclusive: 50.1 µM [inhibitor, partial curve, poor fit]"
5,CC(=O)N1CC2(CCCN2Cc2ccc(Cl)cc2)Cc2ccccc21 (stereo not given),"inconclusive: 79.4 µM [inhibitor, partial curve, poor fit]"
6,Cc1ccc(C(=O)N2CCCC(c3nc(-c4ccccc4)no3)CCNC(=O)CC2)cn1 (stereo not given),"inconclusive: 89.1 µM [inhibitor, single point]"
7,O=C(c1c(-c2ccccc2)cc(=O)n2c1CCC2)N1CCN(c2ccccc2F)CC1,"inconclusive: 89.1 µM [inhibitor, single point]"
8,COc1ccc(F)cc1-c1ccc(CN2CCC(NC(=O)c3ccccc3)C2)cc1 (stereo not given),"inconclusive: 39.8 µM [inhibitor, full curve, poor fit]"
9,COc1ccc(-c2ccccc2C(=O)N(C)CC#N)nn1,inactive
10,CCC1Oc2ccc(NC(=O)c3ccc4c(c3)OCO4)cc2CN(Cc2ccccc2)C1=O (stereo not given),active: 89.1 µM
11,O=C(NCc1cccc(F)c1)c1ccc2c(c1)CC(=O)N2Cc1ccccc1,inactive
12,COc1cccc(C(=O)NC[C@@H]2CC[C@H]3C[C@@H]2C3(C)C)c1,active: 89.1 µM
13,Cc1ccc(-c2ccc3nnc(CNC(=O)c4ccccc4)n3n2)cc1C,"inconclusive: 100 µM [inhibitor, single point]"
14,COc1ccccc1Nc1ccnc(N2CCCC(C(=O)NC3CC3)C2)n1 (stereo not given),"inconclusive: 50.1 µM [inhibitor, partial curve, poor fit]"
15,COc1ccc(CN2CC3(CCN(C(=O)c4cc(-c5ccc(F)cc5)n[nH]4)CC3)C2=O)cc1,active: 89.1 µM
16,Cc1ccc(-c2cnc([C@@H]3COCCN3C(C)C)[nH]2)cc1,active: 112 µM
17,COC1C(=O)N(CC2CC2)C12CCN(C(=O)c1cnccc1C)CC2 (stereo not given),inactive
18,COc1ccc(Nc2n[nH]c(C(O)c3cccc(C(F)(F)F)c3)n2)cc1OC (stereo not given),"inconclusive: 79.4 µM [inhibitor, partial curve]"
19,COc1cccc(CNC(=O)Cn2ccn3nc(-c4ccc(F)cc4)c(CO)c3c2=O)c1OC,"inconclusive: 79.4 µM [inhibitor, single point]"
20,COC1CN(c2cccc(F)c2)C12CCN(C(=O)c1cnc(C)cn1)CC2 (stereo not given),inactive
21,CC(C)(C)C(=O)N1CCC[C@@H]1C(=O)N1CCCC(c2nc3ccncc3[nH]2)C1 (stereo not given in full),inactive
22,O=C(c1ccccn1)N1CCC2(CC1)CC(N(Cc1ccccc1)C1CC1)CCO2 (stereo not given),"inconclusive: 89.1 µM [inhibitor, single point]"
23,CCn1cc(-c2cc3c(cn2)CN(Cc2ccncc2)CCN3)cn1,"inconclusive: 89.1 µM [inhibitor, partial curve, poor fit]"
24,CN(C)c1ccc(C(=O)N2CCC3(CC2)N=C(c2cccc(Br)c2)NO3)cc1,"inconclusive: 35.5 µM [inhibitor, partial curve, poor fit]"

row,Compound,Potency
1,COc1ccc(CN2C(=O)[C@H](OC)[C@@H]2C2=CCN(C(=O)c3cccc(C#N)c3)CC2)cc1,inactive
2,Cn1nc(C2CC2)n(C2CCN(Cc3cn[nH]c3-c3ccccc3)CC2)c1=O,inactive
3,Cc1ccc(-n2cc(CN(C)C(C)C(=O)N(C)C)c(-c3cccc(C)c3)n2)cc1 (stereo not given),"inconclusive: 50.1 µM [inhibitor, partial curve, poor fit]"
4,COc1ccc(NC(=O)c2ccc3c(c2)OCCN(c2ccccc2)C3)c(F)c1,"inconclusive: 25.1 µM [inhibitor, full curve, poor fit]"
5,Cc1ccc(-c2noc([C@@H]3Cc4nc[nH]c4CN3Cc3ccc(F)cc3)n2)cc1,active: 89.1 µM
6,CCNC(=O)N1C[C@@H](Oc2cccnc2)C[C@@H]1C(=O)NCCOC,inactive
7,COC[C@H]1C[C@@H](NS(=O)(=O)c2cccc(C(F)(F)F)c2)[C@H](O)[C@@H]1O,inactive
8,CN1C(=O)c2cccn2CC1CNC(=O)c1cccn1C (stereo not given),inactive
9,CC1(CNC(=O)c2ccc(Cl)s2)CCOCC1,inactive
10,COc1ncccc1Nc1cnc2ccc(N(C)Cc3ccc(F)cc3)nn12,active: 44.7 µM
11,Cc1ccc(CN2CCc3nn(C)c(=O)n3CC2)o1,"inconclusive: 89.1 µM [inhibitor, single point]"
12,Cc1cc(C(=O)N2CC[C@H]3C(=O)NCCCCCCN(Cc4ccncc4)[C@@H]3C2)nn1C,inactive
13,O=C(NCC(F)(F)F)c1nc2sccn2c1-c1ccc(F)cc1,inactive
14,CC(C)CNC(=O)C(C)(C)Oc1nn(CC2CC2)c2ccc(CN3CCCC3)cc12,"inconclusive: 126 µM [inhibitor, single point]"
15,CNC(=O)c1cc(C2CC2)nc2onc(C3CCN(C(=O)C4CC4)CC3)c12,"inconclusive: 89.1 µM [inhibitor, single point]"
16,O=C(c1cccc(Cl)c1)N1CCN(c2cc(-c3ccc(Cl)cc3)[nH]n2)CC1,active: 44.7 µM
17,CCCNC(=O)c1ccc2c(c1)CC(=O)N2Cc1cccc(F)c1,inactive
18,CS(=O)(=O)N1CCc2ccc(C(=O)NCc3ccc(OC(F)(F)F)cc3)cc21,"inconclusive: 39.8 µM [inhibitor, partial curve]"
19,O=C1CC2(CCN(S(=O)(=O)c3ccccc3)CC2)Oc2ccccc21,"inconclusive: 50.1 µM [inhibitor, partial curve, poor fit]"
20,O=C(CC1CCCCN(Cc2ccccc2)C1=O)Nc1ccccc1F (stereo not given),"inconclusive: 50.1 µM [inhibitor, partial curve, poor fit]"
21,O=C1CCN(C(=O)c2ccco2)CCCCCCN1,inactive
22,CC(C)c1noc(-c2cn(C3CCN(C(=O)c4ccc5c(c4)OCO5)C3)nn2)n1 (stereo not given),"inconclusive: 44.7 µM [inhibitor, partial curve]"
23,CC(C)Cc1cc(C(=O)N2CCc3[nH]nc(-c4ccccc4F)c3C2)n(C)n1,"inconclusive: 50.1 µM [inhibitor, partial curve, poor fit]"
24,CCCCOc1c(CNC(C)c2ncccc2C)cccc1OC (stereo not given),active: 39.8 µM

row,Compound,Potency
1,Cn1cccc1CN1CCCC(c2nn(-c3ccccc3)c(=O)[nH]2)C1 (stereo not given),"inconclusive: 100 µM [inhibitor, partial curve]"
2,O=C(NC1CCCN(c2ccc3nnc(-c4ccccc4)n3n2)C1)c1cccnc1 (stereo not given),"inconclusive: 44.7 µM [inhibitor, partial curve, poor fit]"
3,CCCCNC(=O)Cc1csc2nc(C)c(-c3cc(C)n(-c4cc(Cl)ccc4C)n3)c(=O)n12,"inconclusive: 56.2 µM [inhibitor, partial curve, poor fit]"
4,c1cncc(CN2CCC(N3CC(OCC4CC4)C34CCCCC4)CC2)c1 (stereo not given),inactive
5,O=C(c1nc(-c2ccsc2)c2ccccn12)N1CCOCC1,"inconclusive: 126 µM [inhibitor, single point]"
6,CN(Cc1cccnc1)c1nc2c(c(=O)[nH]1)CCN(Cc1cc(F)ccc1F)CC2,"inconclusive: 31.6 µM [inhibitor, partial curve]"
7,COC(=O)[C@@H]1Cc2c([nH]c3ccccc23)[C@H]2C[C@@H](NCCN3CCOCC3)C[C@@H](c3ccc(F)cc3)N21,active: 28.2 µM
8,CCC(C)NC(=O)CCN(CC)C(=O)c1cc(C)oc1C (stereo not given),inactive
9,CC(C)(C)C(=O)N1CC[C@@H](CC(=O)O)[C@@H](CC2=NCCc3ccc(C(C)(C)C)cc32)C1,inactive
10,COc1ccccc1-c1ccc(C(=O)N2CCC(NC(=O)c3ccc(C)cc3)CC2)cc1,"inconclusive: 50.1 µM [inhibitor, partial curve, poor fit]"
11,COc1ccccc1-c1cc(-c2ccccc2OC)c2onc(C)c2n1,"inconclusive: 100 µM [inhibitor, partial curve]"
12,CCCCn1c(=O)c(C(=O)N2CCN(C(=O)NC3CCCC3)CC2)nc2cccnc21,inactive
13,O=C(NCc1cccs1)C1CCCN(Cc2cccc(-c3ccc(F)cc3F)c2)C1 (stereo not given),active: 44.7 µM
14,O=C(c1ccccc1Cl)N1CCCN(c2cc(-c3ccc(F)cc3)[nH]n2)CC1,active: 44.7 µM
15,CCNc1nccc(N2CCC(CC(=O)N(CC)CC)CC2)n1,"inconclusive: 79.4 µM [inhibitor, partial curve, poor fit]"
16,O=C1NCCCC[C@@H]1Nc1ccc(-c2nc(COc3ccccc3)no2)cn1,"inconclusive: 89.1 µM [inhibitor, single point]"
17,CC(C)(C)C(=O)N1CCCC2(COc3ccccc3[S+](=O)([O-])N2)C1 (stereo not given),inactive
18,O=C(c1ccc(Cl)cc1)N1CCN(c2ccc3nnc(-c4ccccc4)n3n2)CC1,"inconclusive: 50.1 µM [inhibitor, partial curve, poor fit]"
19,Cc1ccc(CN2C[C@@H]3C(=O)N(CCc4ccccc4)C(=O)[C@@H]3C2)cc1,"inconclusive: 79.4 µM [inhibitor, single point]"
20,COc1ccccc1C(=O)N1CCCn2nc(C)c(-c3ccccc3Oc3ccccc3)c21,active: 100 µM
21,COC1CCC12CCN(C(=O)CCc1ccccc1)CC2 (stereo not given),inactive
22,O=C(c1ccc(C(F)(F)F)cc1)N1CCC2(CC1)C(=NC1CCCCC1)NC(=O)N2c1cccnc1,inactive
